Source: PubChem BioAssay AID1466 (National Center for Advancing Translational Sciences (NCATS), 2008)
Hit rate of the full screen: of about 200,000 compounds, about 10 (0.005%) were called active. This list was built around the results that the source calls inconclusive (neither active nor inactive); the mix of calls is not that of the screen. Calls follow the shape of the dose curve; as a rule, active = well fitted inhibition curve with a large enough effect; inconclusive = small, poorly fitted or top-dose-only effect, or effect the other way, or another doubt; inactive = no such curve, though single readings can be large or run the other way. Potencies of inconclusive entries are doubtful fits and often do not repeat.

Target: Lysosomal alpha-glucosidase (Homo sapiens) (UniProt P10253)
Assay: qHTS Assay for Inhibitors of Human alpha-Glucosidase as a Potential Chaperone Treatment of Pompe Disease;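 as to activity change, negative = inhibition: plate controls were uninhibited enzyme wells for no effect and no-enzyme background for full effect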
Conditions: purified human GAA, 4-MU-alpha-glucoside fluorescence; activity change, negative = inhibition: at 76.9 µM (top of the series) unless noted
Summary of the method: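 Endpoint fluorogenic read: 20 min room-temperature reaction of 4 nM human alpha-glucosidase with 400 uM 4-methylumbelliferyl-alpha-D-pyranoside, pH 5.0, quenched with 1M NaOH/1M glycine pH 10. AC50 from Hill modeling.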
Potency is read from the fitted curve at half-maximal effect; tags tell the direction and shape of the fitted curve.

| SMILES | Potency | activity change, negative = inhibition |
| --- | --- | --- |
| N#Cc1c(N)n(CCNC(=O)c2ccccc2)c2nc3ccccc3nc12 | inconclusive: 7.94 µM [activator, full curve] | – |
| Oc1ccccc1C(=S)N1CCCCC1 | inconclusive: 56.2 µM [inhibitor, single point] | – |
| CCOC(=O)/C(C#N)=C1/C(=O)N(Cc2ccccc2)c2ccccc21 | – | inactive: -3.92% |
| CC(C)OCCCNC(=O)C(C)Oc1ccccc1 (stereo not given) | inconclusive: 11.2 µM [inhibitor, single point] | – |
| Cc1cc(C(=O)OCn2nnc3ccccc3c2=O)c(C)n1-c1ccccc1 | – | inconclusive: -17.6% [inhibitor] |
| CC1=CC(C)(C)N(S(=O)(=O)c2ccc(F)cc2)c2ccccc21 | inconclusive: 31.6 µM [activator, single point] | – |
| CCC1(C)Cc2ccccc2-c2nc(NCCCO)n(C)c(=O)c21 (stereo not given) | inconclusive: 56.2 µM [activator, single point] | – |
| CC(=O)Nc1cc(OC(C)=O)c2nonc2c1OC(C)=O | – | inactive: -4.56% |
| CCC1(C)Cc2ccccc2-c2nc(NCCO)[nH]c(=O)c21 (stereo not given) | inconclusive: 39.8 µM [activator, single point] | – |
| COc1ccc(CCN2CCC(Nc3nc4ccccc4n3Cc3ccc(F)cc3)CC2)cc1 | inconclusive: 50.1 µM [inhibitor, partial curve, poor fit] | – |
| CCOc1ccc(N(C(=O)CNS(=O)(=O)c2ccccc2)C(CC)C(=O)NCc2ccco2)cc1 (stereo not given) | – | inconclusive: 16.5% [activator] |
| CCOc1nc(-c2ccccc2)ccc1-c1noc(-c2ccco2)n1 | inconclusive: 12.6 µM [inhibitor, single point] | – |
| COc1ccccc1Nc1cc(C(=O)NCCCN2CCOCC2)c2ccccc2n1 | – | inconclusive: -19.5% [inhibitor] [at 15.4 µM] |
| Cc1nn2c(-c3ccncc3)ccnc2c1Br | inconclusive: 56.2 µM [inhibitor, single point] | – |
| COc1ccc(-c2nc3cc(C)ccn3c2NCc2ccc3c(c2)OCO3)cc1 | – | inconclusive: 15.1% [activator] |
| COC(=O)c1[nH]c2ccc(C)cc2c1NS(=O)(=O)c1ccc(F)cc1 | – | inactive: 8.5% |
| COC(=O)CNc1c(-c2ccccc2)nc2ccc(Br)cn12 | – | inactive: -7.85% |
| Cc1ccccc1Cn1c(CN2CCN(C(=O)c3ccco3)CC2)nc2c1c(=O)n(C)c(=O)n2C | inconclusive: 50.1 µM [inhibitor, single point] | – |
| CCOC(=O)c1c(C)n(-c2ccc(C)cc2)c2c(C(C(C)=O)C(=O)O)c(Br)c(O)c(O)c12 (stereo not given) | – | inactive: -4.34% |
| COc1ccc2[nH]c(C(=O)O)c(NS(=O)(=O)c3ccc(Cl)s3)c2c1 | – | inactive: 6.81% |
| COc1ccc(-c2ccc(Nc3ccc(S(=O)(=O)N4CCCC4)cc3)nn2)cc1OC | inconclusive: 50.1 µM [inhibitor, single point] | – |
| Cc1oc2cc(O)ccc2c(=O)c1Oc1ccccc1 | inconclusive: 28.2 µM [activator, partial curve] | – |

| SMILES | Potency | activity change, negative = inhibition |
| --- | --- | --- |
| CC(C)(CNCC(O)c1ccccc1)N1CCOCC1 (stereo not given) | inconclusive: 56.2 µM [inhibitor, single point] | – |
| Cc1cc(C)c[n+](-c2[nH]c(=O)sc2/C=N/NC([S-])=Nc2ccccc2)c1 | inconclusive: 3.55 µM [inhibitor, partial curve] | – |
| Cc1ccc(-c2c(C#N)c(N)n3c(nc4ccccc43)c2C#N)cc1 | inconclusive: 28.2 µM [inhibitor, single point] | – |
| COc1ccc(CNC(=O)CCC(=O)N2CCN(S(=O)(=O)c3ccc(Cl)cc3)CC2)cc1 | inconclusive: 39.8 µM [inhibitor, partial curve, poor fit] | – |
| CC(=O)NS(=O)(=O)c1ccc(NC(=O)c2cccc(S(=O)(=O)N3CCc4ccccc43)c2)cc1 | inconclusive: 28.2 µM [inhibitor, single point] | – |
| Cc1occc1-c1nnc(SCC(=O)Nc2ccccc2)n1CCc1ccccc1 | inconclusive: 35.5 µM [inhibitor, single point] | – |
| CCOC(=O)c1sc(NC(=O)CSc2nc(O)c(Cc3ccccc3)c(=O)[nH]2)nc1C | – | inactive: -4.75% |
| CCc1cc2c(=O)c(-c3nc(C)cs3)coc2cc1OC(C)C(=O)NCCO (stereo not given) | inconclusive: 2.24 µM [inhibitor, full curve, poor fit] | – |
| Cc1ccc(S(=O)(=O)c2c(COC(=O)c3cccc(Cl)c3)c(-c3ccccc3)nn2C)cc1 | inconclusive: 11.2 µM [inhibitor, partial curve, poor fit] | – |
| C=CCc1cccc2cc(C(=O)NC3CCCC3)c(=O)oc12 | inconclusive: 0.178 µM [inhibitor, full curve, poor fit] | – |
| COc1ccccc1Oc1c(C)oc2c(CN(C)C)c(O)ccc2c1=O | inconclusive: 31.6 µM [activator, partial curve] | – |
| O=C(CSCc1ccc(Br)cc1)Nc1ccc(S(=O)(=O)N2CCOCC2)cc1 | inconclusive: 39.8 µM [inhibitor, partial curve] | – |
| CCc1c(C)nc(SCC(=O)CC(=O)OC(C)C)c(C#N)c1C | inconclusive: 56.2 µM [inhibitor, single point] | – |
| Cc1c(CN2CCc3c([nH]c4ccccc34)C2C2CCCCC2)cnn1C (stereo not given) | inconclusive: 5.62 µM [inhibitor, single point] | – |
| COc1ccc(C(=O)NC(=S)NNC(=O)COc2ccccc2)cc1 | – | inconclusive: 8.79% [activator] |
| CCNc1nc(NC(C)C)nc(Nn2cnnc2)n1 | inconclusive: 28.2 µM [inhibitor, partial curve] | – |
| COc1ccc(/C=C2\Sc3ccc(C(=O)NCc4cccnc4)cc3N(C)C2=O)cc1OC | inconclusive: 4.47 µM [inhibitor, full curve] | – |
| CCC(=O)NNc1nc2c(C)cccc2s1 | inconclusive: 56.2 µM [inhibitor, single point] | – |
| CC(=O)N1CCN(Cc2nc3cc(NC(=O)c4ccc(F)cc4)ccc3n2C)CC1 | – | inactive: 12.9% |
| CC(C)[C@H](NC(=O)OCc1ccccc1)C(=O)OCC(=O)Nc1c(F)cccc1F | inconclusive: 1.26 µM [inhibitor, full curve, poor fit] | – |
| O=[N+]([O-])c1ccc(Oc2cccc3cccnc23)c([N+](=O)[O-])c1 | inconclusive: 0.708 µM [inhibitor, single point] | – |
| O=C(O)c1ccccc1NCc1ccncc1 | – | inconclusive: 24.5% [activator] |

| SMILES | Potency | activity change, negative = inhibition |
| --- | --- | --- |
| O=S(=O)(c1ccc(F)cc1)N1CCN(c2ncnc3c2cnn3-c2ccccc2)CC1 | inconclusive: 35.5 µM [inhibitor, partial curve] | – |
| Cc1noc(NS(=O)(=O)c2ccc(N/C=C/C(=O)c3ccccc3)cc2)c1C | inconclusive: 39.8 µM [inhibitor, partial curve, poor fit] | – |
| COc1ccc(O)c(-c2[nH]ncc2C(=O)c2ccccc2)c1 | – | inconclusive: -16.2% [inhibitor] |
| Cc1cc(C)n(C(=O)c2ccc(NC(=O)CC(C)C)cc2)n1 | inconclusive: 35.5 µM [inhibitor, single point] | – |
| Cc1c(Cl)cccc1NC(=O)CSc1ccc(-c2cccnc2)nn1 | inconclusive: 2.82 µM [inhibitor, partial curve] | – |
| Cc1ccc(C)c(/C(O)=C2\C(=O)C(=O)N(CCCN3CCOCC3)C2c2cccnc2)c1 (stereo not given) | inconclusive: 0.891 µM [inhibitor, full curve, poor fit] | – |
| COc1ccc(NC(=O)N2CCC(C(=O)c3ccc(F)cc3)CC2)cc1 | inconclusive: 11.2 µM [inhibitor, partial curve] | – |
| Cc1ccnc(Sc2ncccc2[N+](=O)[O-])n1 | inconclusive: 0.158 µM [inhibitor, full curve, poor fit] | – |
| CCc1c(C)c(C#N)c2nc3ccccc3n2c1NCc1ccccn1 | inconclusive: 0.158 µM [activator, full curve, poor fit] | – |
| COCCNC(=O)C(=O)NNS(=O)(=O)c1ccc(Cl)cc1 | inconclusive: 50.1 µM [inhibitor, single point] | – |
| O=C(OCC(=O)N1CCN(C(=O)c2ccco2)CC1)c1cc(S(=O)(=O)Nc2ccc(Cl)cc2)ccc1O | inconclusive: 17.8 µM [inhibitor, partial curve, poor fit] | – |
| CN(C)S(=O)(=O)c1ccc(S(=O)(=O)N(Cc2ccco2)Cc2ccccc2Cl)cc1 | inconclusive: 3.55 µM [inhibitor, partial curve] | – |
| Cc1cc(OCC(=O)Nc2ccc(CN3CCCCC3)cc2)ccc1Cl | inconclusive: 4.47 µM [inhibitor, partial curve] | – |
| Cc1cc(=O)[nH]c2c(C)c(N)ccc12 | inconclusive: 35.5 µM [activator, partial curve] | – |
| COc1ccccc1-c1csc(NC(=O)c2cc(-c3cccs3)nc3ccccc23)n1 | – | inactive: -1.72% |
| O=c1oc2cc(O)ccc2c2c1CCCC2 | inconclusive: 35.5 µM [activator, partial curve] | – |
| CCOC(=O)c1cnn2c(C(F)(F)F)cc(-c3ccco3)nc12 | inconclusive: 35.5 µM [activator, partial curve] | – |
| COc1ccc(OC)c(/C=N/NC(=O)CN2CCSCC2)c1 | inconclusive: 35.5 µM [activator, partial curve] | – |
| N#CC1=C(N)SC2(CCCCC2)SC1c1ccccc1 (stereo not given) | – | inconclusive: -16.9% [inhibitor] |
| CCOC(=O)Cn1nc(-c2ccccc2)c2ccccc2c1=O | inconclusive: 56.2 µM [inhibitor, single point] | – |
| CCn1cc(CNCc2ccc(OCC(O)CN(C)Cc3ccccc3)cc2)cn1 (stereo not given) | – | inconclusive: 18.7% [activator] |
